# The campaign covered roughly 220,000 compounds. About 16,000 (7.3%) were called active. The inconclusive results got no clear call from the source; some entries with a clear call stand among them for comparison. The call rests on the fitted dose curve; in most records, active means well fitted inhibition curve with a large enough effect (not every such curve was filed as active); inconclusive means small, poorly fitted or top-dose-only effect, or another doubt; inactive means no such curve, though single readings can be large or run the other way. Potencies of inconclusive entries are left out as doubtful fits.
# Molecular target: Aldehyde dehydrogenase 1A1 (Homo sapiens) (UniProt P00352)
# UniProt P00352, sequence (P00352 whole entry, looked up): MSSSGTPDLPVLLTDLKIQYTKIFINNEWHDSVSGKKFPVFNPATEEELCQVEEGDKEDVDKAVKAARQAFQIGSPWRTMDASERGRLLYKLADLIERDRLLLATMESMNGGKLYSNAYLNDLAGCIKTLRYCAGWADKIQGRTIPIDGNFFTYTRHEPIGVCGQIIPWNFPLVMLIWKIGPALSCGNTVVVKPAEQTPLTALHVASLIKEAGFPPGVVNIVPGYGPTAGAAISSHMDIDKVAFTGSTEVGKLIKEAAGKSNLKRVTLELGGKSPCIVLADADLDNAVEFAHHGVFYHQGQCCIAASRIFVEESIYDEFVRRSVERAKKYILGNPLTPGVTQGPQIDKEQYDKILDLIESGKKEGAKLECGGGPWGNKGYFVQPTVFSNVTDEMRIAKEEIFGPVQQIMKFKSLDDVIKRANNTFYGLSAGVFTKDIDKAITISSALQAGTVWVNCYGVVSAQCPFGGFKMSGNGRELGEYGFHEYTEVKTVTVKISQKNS
# Assay: qHTS Assay for Inhibitors of Aldehyde Dehydrogenase 1 (ALDH1A1);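 on activity, negative = inhibition: plate controls were no enzyme wells and a reference inhibitor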
# Settings: Purified ALDH1A1, NADH fluorescence, propionaldehyde substrate; series mostly up to 75.3 µM; activity, negative = inhibition: at the top concentration
# Potency means the concentration at half of the fitted maximal effect; tags describe the fitted curve by direction and shape.
SMILES,Potency,"activity, negative = inhibition"
O=C(CSc1nnnn1-c1cccc2c1CCCC2)N1CCCCC1,active: 31.6 µM,–
COc1ccc(N2CCN(C(=O)CCCN3C(=O)c4cccc5cccc(c45)C3=O)CC2)cc1,"inconclusive [inhibitor, single point]",–
CC1CCCC2(C1)NC(=S)N(c1ccccc1)N2 (centres undefined),"inconclusive [inhibitor, single point]",–
CN(Cc1ccccc1)c1nc2c(c(=O)n(C)c(=O)n2C)n1CCCc1ccccc1,"inconclusive [inhibitor, single point]",–
CN(C)CC(=O)Nc1cc(C(F)(F)F)ccc1Cl,–,inactive: 5.15%
C/C(Cn1nnc([N+](=O)[O-])n1)=N\NC(=O)c1ccccc1O,–,inactive: 8.28%
O=C(Nc1nc(-c2ccc(Cl)s2)cs1)c1ccco1,"inconclusive [inhibitor, full curve, poor fit]",–
COc1cccc([C@@H]2Oc3ccc(Br)cc3[C@H](O)[C@H]2O)c1,–,inactive: -0.847%
Cc1ccc2cc(CN(Cc3cccs3)Cc3nnnn3CC3CCCO3)c(=O)[nH]c2c1 (centres undefined),active: 7.94 µM,–
N#Cc1c(NC(=O)C2CC(c3ccccc3O)=NO2)sc2c1CCC2 (centres undefined),active: 11.2 µM,–
COC(=O)c1ccc(COc2ccccc2/C=N/NC(=O)c2cccnc2)cc1,"inconclusive [inhibitor, single point]",–
COc1ccc(NC(=O)C(=S)NC2CCCCC2)cc1,–,inactive: -1.95%
CCOC1OC(=O)C(Cl)=C1Nc1ccc(C)cc1 (centres undefined),"inconclusive [inhibitor, partial curve]",–
CCOC(=O)c1c(N)sc2c1CCN(Cc1ccccc1)C2,–,inactive: -13.8%
COc1ccccc1NS(=O)(=O)c1cc(NC(=O)C2CC2)ccc1N1CCOCC1,"inconclusive [inhibitor, single point]",–
c1ccc(N2CCN(CCc3nnc4n3CCCCC4)CC2)cc1,–,inactive: -10.3%
Fc1cccc2sc(Nc3nc4ccccc4s3)nc12,"inconclusive [inhibitor, partial curve]",–
Cc1ccc(C)c2[nH]c(=O)c(CN(Cc3ccco3)C(=S)NCC3CCCO3)cc12 (centres undefined),active: 20 µM,–
COc1ccc2c(-c3ccccc3)cc(SCC(=O)N(C)C3CCS(=O)(=O)C3)nc2c1 (centres undefined),"inconclusive [inhibitor, partial curve]",–
N#Cc1nc(Cc2ccccc2)oc1NCCc1ccccc1,"inconclusive [inhibitor, single point]",–
CCOC(=O)N1CCN(C(=O)C2CCN(Cc3ccc(OC)cc3OC)CC2)CC1,"inconclusive [inhibitor, partial curve]",–
CC1CCc2cc(F)ccc2N1C(=O)CSc1nnc2c(n1)[nH]c1ccc(F)cc12 (centres undefined),"inconclusive [inhibitor, single point]",–
Cc1cccc2cc(CN(CCN(C)C)C(=S)NCc3ccco3)c(=O)[nH]c12,"inconclusive [inhibitor, single point]",–
O=C(Oc1c(-c2ccccc2Cl)oc2ccccc2c1=O)c1ccc(Cl)cc1,"inconclusive [inhibitor, single point]",–
O=c1[nH]c2cc(C(F)(F)F)c(N3CCOCC3)cc2n(CP(=O)(O)O)c1=O,–,inactive: 7.24%

SMILES,Potency,"activity, negative = inhibition"
CC1Cc2ccccc2N1CC(=O)NCc1ccc2c(c1)OCO2 (centres undefined),"inconclusive [inhibitor, partial curve, poor fit]",–
CC1CCN(CC(=O)N2c3ccccc3CC2C)CC1 (centres undefined),"inconclusive [inhibitor, single point]",–
c1ccc(N2CCN(c3nc4cc5c(cc4s3)OCO5)CC2)cc1,active: 20 µM,–
Cn1cc(S(=O)(=O)NCc2ccco2)c(=O)n(C)c1=O,–,inactive: -1.97%
COCCCNC(=O)/C(C#N)=C/c1cc(C)[nH]c1C,"inconclusive [inhibitor, partial curve]",–
O=[N+]([O-])c1cccc(/C=N/Nc2ccccn2)c1,–,inactive: 4.6%
Cc1ccc(-c2nc3ccccc3[nH]2)cc1NC(=O)c1ccc2c(c1)OCO2,–,inactive: 5.36%
Cc1nn(-c2ccccc2)c(Cl)c1/C=N/NC(=O)CNc1n[nH]c(=O)[nH]c1=O,–,inactive: 1.36%
Oc1ccc(Nc2nc(-c3cccs3)cs2)cc1,"inconclusive [inhibitor, single point]",–
CN(C)C(CNC(=O)c1ccc(S(=O)(=O)N(C)C)cc1)Cc1ccccc1 (centres undefined),"inconclusive [inhibitor, partial curve]",–
Cn1ncc2c(NNC(=O)c3ccc(Cl)c(Cl)c3)ncnc21,–,inactive: 0.941%
O=C(N/N=C/C(Br)=C/c1ccccc1)c1cccs1,–,inactive: -6.05%
O=C(c1cnn2c(C(F)(F)F)cc(-c3ccco3)nc12)N1CCc2ccccc2C1,"inconclusive [inhibitor, single point]",–
CCc1ccc(OCC(=O)Nc2ncc3c(n2)CC(C)(C)CC3=O)cc1,"inconclusive [inhibitor, single point]",–
COC(=O)c1c(-c2ccccc2Cl)noc1/C=C/N(C)C,active: 1.26 µM,–
Cc1nc2ccc(Cl)cc2nc(C)/c1=N\O,"inconclusive [inhibitor, single point]",–
CC(=O)c1sc(NC(=O)C2=NN(c3ccccc3)C(=O)CC2)nc1C,"inconclusive [inhibitor, partial curve]",–
Cc1cc(NC(=O)c2cc3n(n2)C(C(F)(F)F)CC(c2ccco2)N3)no1 (centres undefined),"inconclusive [inhibitor, single point]",–
CNc1cc(C)nc(-n2nc(C)cc2C)n1,–,inactive: -1.38%
Cc1nc2ccccc2c2oc(C(=O)N3CCc4ccccc43)cc12,"inconclusive [inhibitor, partial curve]",–
CCCCCCNC(=O)Nc1ccccc1,"inconclusive [inhibitor, single point]",–
CCOc1ccc(NC(=O)C2CCN(C(=O)NCc3ccccc3)CC2)cc1,–,inactive: 9.65%
CCOC(=O)N1CCN(c2cc(=O)n(-c3ccccc3Cl)c(=O)[nH]2)CC1,–,inactive: -3.47%
Cc1cc(C)n(-c2nc3ccccc3c(=O)n2OCC(=O)OCc2ccccc2)n1,"inconclusive [inhibitor, single point]",–
O=C(CC1(O)C(=O)Nc2cc(Cl)cc(Cl)c21)c1ccncc1 (centres undefined),active: 12.6 µM,–

SMILES,Potency,"activity, negative = inhibition"
Cc1cc(NCCCCO)n2c(nc3ccccc32)c1C#N,"inconclusive [inhibitor, partial curve]",–
Nc1ccccc1C(=O)NNc1ncc(C(F)(F)F)cc1Cl,–,inactive: -9.37%
Clc1cccc(NCc2nnc(SCc3ccc(Cl)cc3Cl)o2)c1,–,inactive: -8.92%
CCOC(=O)c1c(C)c(C(=O)NCc2cccs2)c(C)n1C,"inconclusive [inhibitor, full curve]",–
CC(=O)Nc1nc2ccc(NC(=O)c3ccco3)cc2s1,"inconclusive [inhibitor, single point]",–
CSc1nc(N2CCN(c3ccccc3Cl)CC2)c2ccccc2n1,"inconclusive [inhibitor, single point]",–
Cc1ccc(-c2c(=O)n(OCc3ccccn3)c3ccccc3[n+]2[O-])cc1,"inconclusive [inhibitor, single point]",–
CN1C(=O)/C(=N/OC(=O)c2ccccc2Br)c2ccccc21,"inconclusive [inhibitor, single point]",–
COC(=O)c1ccccc1NC(=O)CCCn1nc([N+](=O)[O-])c(Br)c1C,"inconclusive [inhibitor, partial curve]",–
Cc1cc2oc(=O)cc(CSc3nnc(C)n3N)c2cc1C(C)C,"inconclusive [inhibitor, partial curve]",–
c1cncc(-c2nc(Oc3ccc(-c4nnco4)cc3)c3c4c(sc3n2)CCCC4)c1,–,inactive: -7.11%
O=[N+]([O-])c1ccc(C[n+]2cccc3ccc4cccnc4c32)cc1,"inconclusive [inhibitor, single point]",–
CCCC(=O)Nc1ccc(OCC(=O)OC)cc1,–,inactive: 2.19%
CCn1c(SCC(=O)N2CCOCC2)nc2oc3c(Cl)cc(Cl)cc3c(=O)c2c1=O,"inconclusive [inhibitor, single point]",–
COc1ccc(-n2nc(C(=O)c3cccs3)cc(-c3nc4ccccc4[nH]3)c2=N)cc1,"inconclusive [inhibitor, single point]",–
Cc1cc(C(=O)CSc2nnc(-c3cccc(F)c3)n2N)c(C)n1Cc1ccc2c(c1)OCO2,–,inactive: 2.1%
CN(C1=NC(=O)C(CC(=O)O)S1)c1ccc(O)cc1 (centres undefined),–,inactive: 13.5%
Cc1ccc(NC(=O)Cc2c[nH]c3ccccc23)cc1S(=O)(=O)N1CCCCCC1,–,inactive: -8.63%
C[C@@]1(CCOCc2ccccc2)NC(=O)NC1=O,–,inactive: 16.9% [at 13.5 µM]
CC(=O)n1cc(Nc2ccccc2C(=O)O)c2ccccc21,"inconclusive [inhibitor, partial curve]",–
CCN(CC)C(=O)C1CCCN(c2ccc([N+](=O)[O-])cc2/C=N/NC(=O)c2cccc([N+](=O)[O-])c2)C1 (centres undefined),"inconclusive [inhibitor, partial curve]",–
CN(C(=O)CCCN1C(=O)c2cccc3cccc(c23)C1=O)c1ccccc1,"inconclusive [inhibitor, single point]",–
Cc1ccc(Cn2nnc3c(=O)n(CC(=O)NCC4CCCO4)cnc32)cc1 (centres undefined),"inconclusive [inhibitor, single point]",–
Nc1cccnc1Sc1ccc([N+](=O)[O-])cn1,"inconclusive [inhibitor, partial curve]",–
